Measurements published in ChEMBL document CHEMBL4888484, “Replenishing the malaria drug discovery pipeline: Screening and hit evaluation of the MMV Hit Generation Library 1 (HGL1) against asexual blood stage Plasmodium falciparum ,using a nano luciferase reporter read-out” (2022).
Hit rate of the full screen: of about 150,000 compounds, about 540 (0.36%) showed an effect of 50% or more. Some of the results follow.

system: Plasmodium falciparum; assay: Primary screen in NF54 nanoGlo assay, in single point, at 2uM, 72h; a lower Z score goes with more inhibition; type: functional, Erythrocyte; conditions: timepoint 72 hour

Row | Structure (SMILES) | % Inhibition [%] | Z score
1 | C#C[C@H](C)N(C)Cc1cc(OC)cc(OC)c1 | -10 | 1.32
2 | CCN(CCO)C(=O)N[C@@H](C)c1cn(C(C)(C)C)nc1C | 0 | 0.04
3 | N#Cc1cc2c(nc1N[C@H]1CCCc3cn(C4CCCC4)nc31)CCC2 | 6 | -1.1
4 | CC(C)N(Cc1ccc(N(C)C)cc1)C(=O)N[C@@H](C)c1ccccn1 | -13 | 1.18
5 | Cn1cc(CCCNCc2ccc(C#N)cc2)cn1 | -10 | 1.43
6 | Cc1csc([C@H](C)NC(=O)c2cncn2C)n1 | -2 | 0.34
7 | CCc1noc(C)c1C(=O)Nc1nc(C)ns1 | 6 | -0.87
8 | CCN1CC[C@H](N(C)C(=O)c2cc(OC)no2)C1 | -1 | 0.17
9 | CC(C)(C)c1nn(Cc2ncc(Br)cc2Cl)c(O)c1CCC#N | -13 | 2.43
10 | Cc1cccc(N2CCO[C@@H](CF)C2)n1 | 5 | -0.46
11 | CN1CCN(S(=O)(=O)N2CCC3(CCCC3)C2)CC1 | -12 | 1.32
12 | COc1ccc(OC)c2c1cc(C(=O)N1CCOCC1)n2C | -13 | 1.52
13 | Cc1ccc(NC(=O)c2nnn(CC(=O)Nc3ccc4c(c3)OCO4)c2C)cc1F | 32 | -0.6
14 | CN1CCCc2cc(C(=O)NC3CCCCC3)sc21 | 1 | -0.14
15 | O=C(c1nccc2cccnc12)N1CCC[C@@H]1Cn1ccnc1 | -3 | 0.47
16 | C[C@@H](C(=O)N1CCOCC1)N1CCN(Cc2cccnc2C(F)(F)F)CC1 | -11 | 1.48
17 | CC1CCCC(C)N(C(=O)Nc2cccnc2)C1 (configuration not stated) | -7 | 1.21
18 | COc1cccc(CCn2ccnc2C(C)C)c1 | -4 | 0.93
19 | Cc1cc(C)c(S(=O)(=O)N(CC(=O)N2CCNCC2)C2CCCCCC2)cc1C | -10 | 1.05
20 | O=C(Nc1cccc(S(=O)(=O)N2CCCCC2)c1)c1ccsc1 | -33 | 3.85
21 | C/C=C/CC(=O)N1CC(=O)N(c2cccc(OC)c2)C[C@@H]1Cc1ccccc1 | 4 | -0.65
22 | O=C(O)[C@@H]1Cc2c([nH]c3ccccc23)C(c2cccc(F)c2)N1 (some centres not stated) | -16 | 1.96

Row | Structure (SMILES) | % Inhibition [%] | Z score
23 | C#CCCC1(CCC(=O)N2CCC3(CCCCC3)C2)N=N1 | -12 | 1.53
24 | Cc1ccc(-c2nc([C@H]3CC(=O)N(c4cccc(O)c4)C3)n(CCO)n2)o1 | -4 | 0.63
25 | Cc1cnc2cc(C(=O)NC3CC4CC4C3)ccn12 (configuration not stated) | 2 | -0.29
26 | CN(C)c1ccc(NC(=O)c2cccs2)cc1CN(CC1CC1)C(=O)CC(C)(C)C | 9 | -1.25
27 | Cc1ccccc1NC(=O)c1nn(C)c2ccccc2c1=O | -14 | 1.84
28 | O=C(Cc1nnc(O)c2ccccc12)NCCC(=O)NC1CCCC1 | -8 | 1.12
29 | O=S(=O)(c1ccccc1Cl)N1CCN(c2nc3nccc(-c4cc(Cl)ccc4Cl)n3n2)CC1 | -12 | 2.02
30 | Cc1ccc([C@H](CNC(=O)c2oc3cc(Br)ccc3c2C)N2CCC(C)CC2)o1 | 0 | -0.05
31 | CCC(C)C(=O)N1CC(O)CC1CO (configuration not stated) | 0 | 0.04
32 | Cc1noc(C)c1C(=O)N(C)Cc1cnn(C)c1 | -9 | 1.67
33 | O=C(c1nc2ccc(Cl)cn2c1CN1CC=C[C@@H]1CO)N1CCCCCCC1 | -7 | 1.24
34 | CC(C)[C@@H]1CN(C(=O)c2nn(C)c(=O)c3ccccc23)CCCN1CC1CC1 | -9 | 1.67
35 | COC[C@@H]1CN(c2cnccn2)C[C@H]1C(=O)NCCn1cccn1 | -5 | 0.69
36 | O=C(NCc1ncc[nH]1)C1(Cc2nc3ccccc3[nH]2)CCCC1 | 30 | -0.47
37 | Cc1ccc(C)c(CN2CC[C@@]3(CCCN(Cc4cccnc4)C3=O)C2)c1 | -17 | 1.95
38 | c1cncc(-c2n[nH]c(-c3cccc(Cn4cccn4)c3)n2)c1 | -17 | 2.46
39 | O=C(CN(Cc1cccs1)Cc1cccs1)N1CCNC1=O | -13 | 2.42
40 | COC(=O)C[C@H](c1cccnc1)c1c(Cc2ccccc2)[nH][nH]c1=O | 5 | -0.63
41 | NC(=O)C[C@H]1CCN(c2ccccc2S(=O)(=O)C(F)(F)F)C1 | -3 | 0.59
42 | C[C@@H](CC(=O)N1CCCc2ccccc21)c1ccccc1 | -15 | 2.94
43 | Cc1ccc(C)c(S(=O)(=O)NC(=O)c2ccc3c(c2)OCO3)c1 | -6 | 1.18
44 | CCN(CC)S(=O)(=O)c1cc(-c2nnc(C(=O)N3CCCCC3)o2)cs1 | 14 | -1.63

Row | Structure (SMILES) | % Inhibition [%] | Z score
45 | C=CCC[C@@H](CN1CCN(C(C)=O)CC1)Oc1cccc(C#N)n1 | -10 | 1.82
46 | N#CC1C(=O)NC(=N)C(c2nc(-c3ccccc3)cs2)C12CCCCC2 (configuration not stated) | -4 | 0.59
47 | CC(=O)N(CC(=O)N1CCCCC1)c1cccc(C)c1 | 1 | -0.18
48 | CN1C(=O)[C@@H]2CC[C@H]1CN(C(=O)c1cc(N)ccn1)C2 | 3 | -0.36
49 | O=C1Cc2cc(S(=O)(=O)N3CCC[C@H]3c3nc4ccccc4s3)ccc2N1 | -16 | 3.11
50 | Cc1n[nH]c(C)c1[C@@H](C)CC(=O)N(C)Cc1nccn1Cc1ccccc1 | -14 | 1.61
51 | CC1CCN(C(=O)C(C)N(C)C2CCN(CC(F)(F)F)C2=O)CC1 (configuration not stated) | -3 | 0.45
52 | CC(=Cc1ccccc1)CN1CCO[C@@H](Cn2cccn2)C1 | -1 | 0.16
53 | C[C@@H](NCc1ccc(F)cc1)c1onc(-c2ccccc2)c1C(=O)O | 14 | -1.65
54 | C[C@@H]1Oc2ccc(NC(=O)CCc3ccco3)cc2NC1=O | -3 | 0.25
55 | CCn1ccc2ccc(CN(Cc3ccccn3)C[C@@H]3CCC(=O)N3)cc21 | 9 | -1.16
56 | Cc1cc(N2CCN(C(=O)c3ccc(F)cc3)CC2)nc(C2CC2)n1 | 11 | -1.44
57 | CN(Cc1ccsc1)C(=O)CC(F)(F)F | -11 | 1.52
58 | Cc1cc(NC(=O)N[C@@H](C)C(C)C)no1 | -12 | 1.58
59 | Cc1ccccc1-c1noc([C@@H]2CCCN2S(=O)(=O)c2cccc(Cl)c2C)n1 | -2 | 0.23
60 | Fc1ccccc1-c1nnc2c3ccc(Cl)cc3nc(NCc3ccccc3)n12 | 4 | -0.37
61 | CC(C)c1nc2cc(CCC(=O)Nc3ccc4c(c3)OCCO4)ccc2[nH]1 | -8 | 1.17
62 | Cn1cc(S(=O)(=O)Nc2ccnn2-c2cccc(Cl)c2)cn1 | -4 | 0.61
63 | O=C1CN(C2CC2)C(=O)[C@H](COCc2ccccc2)N1 | -8 | 1.04
64 | O=C([C@H]1C[C@@H]1c1ccc(F)cc1F)N1CCCS(=O)(=O)CC1 | -8 | 0.97
65 | Cc1nn(C)c(C)c1S(=O)(=O)Nc1cccc2[nH]ncc12 | -9 | 1.26
66 | O=C(NC[C@H]1C[C@@H]1c1ccccc1)N1CC(=O)N(C2CC2)C1 | -9 | 1.49

Row | Structure (SMILES) | % Inhibition [%] | Z score
67 | COc1ccc(C(=O)NCCNC(=O)c2nc(C3CC3)no2)cc1OC | -9 | 0.91
68 | COc1ccc(C(=O)N[C@@H](C)c2ncnn2C)cn1 | -12 | 1.14
69 | CCC(CC)C(=O)Nc1cccc(C(F)(F)F)c1 | -2 | 0.3
70 | O=C(CN1C(=O)CCC1=O)NCCc1ccsc1 | -16 | 2.73
71 | Cc1cccc2[nH]c(CNC(=O)C3CCCC3)nc12 | 3 | -0.64
72 | COc1ccc2c(c1)[C@H](C(=O)Nc1nncn1C)CC2 | 2 | -0.27
73 | CN(C)C(=O)N1CCC[C@H](C(=O)NCc2ccc(F)cc2)C1 | -9 | 1.42
74 | Cc1nn(CC(=O)NCC2(O)CCC(F)(F)CC2)c2ncccc12 | 12 | -1.43
75 | CN(CCO)c1ccc(C(=O)N2CCN(c3cccc(Cl)c3)C(=O)C2)cc1 | -5 | 0.68
76 | Cc1[nH]c2ccccc2c1/C=C/c1nccc2ccccc12 | -8 | 1.11
77 | Cc1nc(N2CCOCC2)sc1CNCCn1cccn1 | -3 | 0.44
78 | CN(CCc1ncnn1Cc1ccc2c(c1)OCO2)S(C)(=O)=O | -3 | 0.29
79 | CN1CN(C(=O)c2c[nH]c(C#N)c2)CC1=O | -5 | 0.54
80 | Cc1cc(NC(=O)NC2CC(C)n3ccnc32)ccn1 (configuration not stated) | -1 | 0.11
81 | CCNc1ccc(C#N)cc1NCc1nccn1C | -7 | 0.79
82 | COc1ccc(C)cc1/N=C(\NCCc1c(C)nn(C)c1C)NC(=O)c1ccc(OC)c(OC)c1 | 7 | -1.35
83 | COc1cccc(-c2nc(C(=O)NCc3cnn(-c4ccc(F)cc4F)c3)c(C)[nH]2)c1 | -8 | 0.7
84 | C[C@H](NS(=O)(=O)c1ccc2c(c1)OCCCO2)C(=O)NCc1ccc2c(c1)OCO2 | -7 | 0.92
85 | CCCNC(=O)[C@@H](NC(=O)c1ccc(OC)cc1)C1CCN(C(=O)COC)CC1 | 6 | -0.88
86 | CO[C@@H]1COC[C@@H]1S(=O)(=O)NC(C)CC(=O)c1ccccc1 (some centres not stated) | 1 | -0.11
